Measurements: PMC11558143
Numbering of substitutions follows the chain as printed. Numbers in names are those of the source. These are yes or no findings as the source states them, for the method shown. Binding seen in cells or lysates may run through a third protein. Some entries that bind do so weakly or less than the wild type. For part of these data: Sequences can lack the tags named with a protein. Values belong to the binder of their own block, whether it stands above or below them.

Amino acid sequences for entries named in this document (tags omitted). Residues count along the entry.
UniProt Q00560, residues 23-917: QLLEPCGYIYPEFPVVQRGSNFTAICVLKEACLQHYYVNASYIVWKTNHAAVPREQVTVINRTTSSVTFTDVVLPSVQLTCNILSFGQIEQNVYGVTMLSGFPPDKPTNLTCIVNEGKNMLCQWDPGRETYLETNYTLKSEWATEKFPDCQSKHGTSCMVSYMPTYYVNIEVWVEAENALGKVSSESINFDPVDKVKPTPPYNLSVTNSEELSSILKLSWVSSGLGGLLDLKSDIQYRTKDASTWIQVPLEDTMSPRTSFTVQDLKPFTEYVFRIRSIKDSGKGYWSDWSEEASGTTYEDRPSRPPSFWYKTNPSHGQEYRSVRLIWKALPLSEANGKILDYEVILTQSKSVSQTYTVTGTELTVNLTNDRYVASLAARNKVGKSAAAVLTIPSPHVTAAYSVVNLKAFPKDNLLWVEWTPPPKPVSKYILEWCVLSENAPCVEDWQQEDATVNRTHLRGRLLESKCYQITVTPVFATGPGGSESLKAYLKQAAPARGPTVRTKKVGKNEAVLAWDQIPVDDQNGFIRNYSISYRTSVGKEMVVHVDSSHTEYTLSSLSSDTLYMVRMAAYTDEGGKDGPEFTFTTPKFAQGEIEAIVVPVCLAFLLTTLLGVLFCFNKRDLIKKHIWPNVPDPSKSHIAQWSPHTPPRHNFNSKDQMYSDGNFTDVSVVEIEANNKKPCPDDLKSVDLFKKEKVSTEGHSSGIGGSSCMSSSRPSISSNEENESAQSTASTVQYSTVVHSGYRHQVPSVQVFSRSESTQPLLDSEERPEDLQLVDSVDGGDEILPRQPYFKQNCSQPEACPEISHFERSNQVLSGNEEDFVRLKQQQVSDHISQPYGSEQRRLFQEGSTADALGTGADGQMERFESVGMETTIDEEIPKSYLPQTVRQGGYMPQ

Key:
[1] = biological target: GP130 (glycoprotein 130), endogenous in BAC cells (mouse (endogenous in BAC)) (UniProt Q00560); assay: co-IP; BAC cells with endogenous GP130 and IL23R; how Orm2 was supplied is not told
[2] = biological target: T1, IL23R (interleukin 23 receptor), endogenous in BAC cells (mouse (endogenous in BAC)) (UniProt Q8K4B4); assay: as above
T1 sequence: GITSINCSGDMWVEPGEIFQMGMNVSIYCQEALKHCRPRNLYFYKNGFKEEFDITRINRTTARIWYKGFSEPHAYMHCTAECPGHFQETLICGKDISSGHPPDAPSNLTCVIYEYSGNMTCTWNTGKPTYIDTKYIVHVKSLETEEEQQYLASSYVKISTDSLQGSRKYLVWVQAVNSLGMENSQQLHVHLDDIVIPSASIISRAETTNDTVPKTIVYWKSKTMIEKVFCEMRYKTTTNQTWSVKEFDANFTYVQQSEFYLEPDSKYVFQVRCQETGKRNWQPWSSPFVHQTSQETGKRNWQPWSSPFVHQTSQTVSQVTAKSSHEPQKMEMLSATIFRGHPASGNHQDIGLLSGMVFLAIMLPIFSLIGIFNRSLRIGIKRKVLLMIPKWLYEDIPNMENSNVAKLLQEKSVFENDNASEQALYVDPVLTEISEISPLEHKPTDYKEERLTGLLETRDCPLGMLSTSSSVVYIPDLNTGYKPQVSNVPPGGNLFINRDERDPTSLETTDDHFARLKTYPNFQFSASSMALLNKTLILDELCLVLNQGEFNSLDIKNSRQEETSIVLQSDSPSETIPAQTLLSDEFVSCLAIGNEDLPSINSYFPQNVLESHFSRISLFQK

[3] = biological target: Flag-GP130 (glycoprotein 130) (UniProt Q00560); assay: co-IP; HEK293T co-transfected with HA-IL23R and Flag-GP130; receptors captured on anti-Flag and anti-HA agarose beads, washed; Orm2, Orm2-6mut or Orm2-D178E protein added to the beads (0.1 µg/mL, 2 h), washed with RIPA, Western blot; only the binder purified
[4] = biological target: T2, HA-IL23R (interleukin 23 receptor) (UniProt Q8K4B4); assay: as above
T2 sequence: T1 sequence

[5] = biological target: Flag-GP130 (glycoprotein 130) (UniProt Q00560); assay: co-IP; HEK293T transfected with Flag-GP130 or IL23R, lysed in RIPA buffer; receptor captured on anti-Flag or anti-HA agarose beads at 4 °C overnight, washed; Orm2 added to the beads at 0.1 µg/mL for 2 h, washed with RIPA, Western blot; only the binder purified
[6] = biological target: T2, HA-IL23R (interleukin 23 receptor); assay: as above
[7] = biological target: Flag-GP130 (glycoprotein 130) (UniProt Q00560); assay: co-IP; HEK293T transfected with IL23R and GP130, with or without Orm2 (100 ng/mL) treatment
[8] = biological target: GP130 (glycoprotein 130), endogenous in BAC cells (mouse (endogenous in BAC)) (UniProt Q00560); assay: co-IP; BAC cells, endogenous IL23R and GP130, with or without Orm2 (100 ng/mL) treatment

binding [1]: binds | binding [2]: binds | binding [3]: binds | binding [4]: binds | binding [5]: binds | binding [6]: binds
B1: Orosomucoid 2 (Orm2), recombinant HA-tagged protein (ligand, UniProt P07361 19-207)
chain: QNPEHVNITIGDPITNETLSWLSDKWFFIGAAVLNPDYRQEIQKTQMVFFNLTPNLINDTMELREYHTIDDHCVYNSTHLGIQRENGTLSKYVGGVKIFADLIVLKMHGAFMLAFDLKDEKKRGLSLNAKRPDITPELREVFQKAVTHVGMDESEIIFVDWKKDRCSQQEKQQLELEKETKKDPEEGQA

binding [3]: binds | binding [4]: binds
B3: Orm2-D178E, with HA and 6xHis tag (ligand, UniProt P07361 19-207)
chain: B1 chain with D160E

Continued, binder first:

B2: Orm2-6mut (T71A, H166A, D170A, K136A, G113A and E138A), HA-tagged (ligand, UniProt P07361 19-207)
chain: B1 chain with T53A, G95A, K118A, E120A, H148A, D152A
binding [3]: no binding (tested: 0.1 µg mL^-1) | binding [4]: no binding (tested: 0.1 µg mL^-1)

B4: HA-IL23R (interleukin 23 receptor) (receptor, UniProt Q8K4B4 24-644)
chain: T1 sequence
binding [7]: binds

B5: IL23R (interleukin 23 receptor), endogenous in BAC cells (receptor, UniProt Q8K4B4 24-644)
chain: T1 sequence
binding [8]: binds
